From the antibiotic and cytotoxicity screens of Wong et al. (2023)
The list shows a part of the results.

How the values were obtained:
HSkMC = human skeletal muscle cells; assay: cytotoxicity call (relative viability < 0.9); details: 10 µM
HepG2 = assay: cytotoxicity call (relative viability < 0.9); details: 10 µM
S. aureus RN4220 = assay: growth inhibition call (relative growth <= 0.2); details: 50 µM

Row | SMILES | cytotoxicity call (HSkMC) | cytotoxicity call (HepG2) | growth inhibition call (S. aureus RN4220)
1 | COc1ccc(S(=O)(=O)N2C[C@H](O)COC[C@H]3O[C@@H](CC(=O)N[C@H]4CCN(Cc5ccccc5)C4)CC[C@@H]32)cc1 | inactive | inactive | inactive
2 | C[C@H]1CCCCO[C@H](CN(C)C(=O)Nc2ccc(C(F)(F)F)cc2)[C@@H](C)CN([C@@H](C)CO)C(=O)c2cc(NC(=O)Cc3ccccc3)ccc2O1 | inactive | inactive | inactive
3 | COc1ccc(NC(=O)Nc2ccc3c(c2)C(=O)N([C@H](C)CO)C[C@H](C)[C@@H](CN(C)S(=O)(=O)c2ccc(F)cc2)OCCCC[C@H](C)O3)cc1 | inactive | inactive | inactive
4 | C[C@H]1CN([C@@H](C)CO)C(=O)Cc2cc(NC(=O)Cn3cnnn3)ccc2O[C@@H]1CN(C)C(=O)Nc1ccc2c(c1)OCO2 | inactive | inactive | inactive
5 | C[C@@H]1CN([C@@H](C)CO)C(=O)CCCn2cc(nn2)CO[C@@H]1CN(C)Cc1ccc2c(c1)OCCN2C | inactive | inactive | inactive
6 | C[C@@H]1CN([C@@H](C)CO)C(=O)c2c(c3ccccc3n2C)-c2ccccc2CO[C@@H]1CN(C)CC1CCCCC1 | inactive | active | inactive
7 | Cc1ccc(S(=O)(=O)N(C)C[C@H]2Oc3c(NC(=O)NC(C)C)cccc3C(=O)N([C@H](C)CO)C[C@H]2C)cc1 | inactive | inactive | inactive
8 | Cc1noc(C)c1NC(=O)Nc1ccc2c(c1)C(=O)N([C@@H](C)CO)C[C@@H](C)[C@@H](CN(C)CC1CC1)OCCCC[C@@H](C)O2 | inactive | inactive | inactive
9 | Cc1ccc(S(=O)(=O)N(C)C[C@H]2Oc3cc(C#Cc4ccccc4)ccc3S(=O)(=O)N([C@H](C)CO)C[C@@H]2C)cc1 | inactive | inactive | inactive
10 | C[C@@H]1CCCCO[C@@H](CN(C)C(=O)CCCN(C)C)[C@H](C)CN([C@@H](C)CO)C(=O)c2cc(N(C)C)ccc2O1 | inactive | inactive | inactive
11 | C[C@H]1CN([C@@H](C)CO)C(=O)c2cccc(NS(=O)(=O)c3cn(C)cn3)c2O[C@H]1CN(C)Cc1ccc(C(=O)O)cc1 | inactive | inactive | inactive
12 | COCC#Cc1ccc2c(c1)O[C@H](CN(C)C(=O)C1CCOCC1)[C@H](C)CN([C@H](C)CO)S2(=O)=O | inactive | inactive | inactive
13 | Cc1csc(S(=O)(=O)N(CC(C)C)c2cc3c(cc2OCc2ccc(C(=O)O)cc2)CCC3)n1 | inactive | inactive | inactive
14 | NCCS(=O)(=O)O | inactive | inactive | inactive
15 | C[C@@H]1CN([C@H](C)CO)S(=O)(=O)c2ccc(C#Cc3cccnc3)cc2O[C@H]1CN(C)CC1CCCC1 | inactive | inactive | inactive
16 | CC1(C(=O)[O-])CCC2(C)CCC3(C)C(=CC(=O)C4C5(C)CCC(OC(=O)CCC(=O)[O-])C(C)(C)C5CCC43C)C2C1.[Na+].[Na+] (configuration not stated) | inactive | inactive | inactive
17 | C[C@@H]1CN([C@@H](C)CO)C(=O)c2cc(NS(=O)(=O)c3ccc(F)cc3)ccc2O[C@@H]1CN(C)S(=O)(=O)c1cccs1 | inactive | inactive | inactive
18 | C=CCN(Cc1ccccc1)C(=O)[C@@H]1N(c2cccc(Cl)c2CO)C(=O)[C@H]2[C@H](C(=O)OCC)[C@@H]3C=C[C@]12O3 | inactive | inactive | inactive
19 | O=C(C[C@@H]1CC[C@H](NC(=O)c2cccnc2)[C@H](CO)O1)NCCN1CCCCC1 | inactive | inactive | inactive
20 | COc1ccc(NC(=O)Nc2ccc3c(c2)C(=O)N([C@@H](C)CO)C[C@H](C)[C@@H](CN(C)S(=O)(=O)c2ccc(OC)cc2)OCCCC[C@H](C)O3)cc1 | inactive | inactive | inactive
21 | CC(C)NC(=O)Nc1cccc2c1O[C@H](CN(C)S(=O)(=O)c1cccs1)[C@@H](C)CN([C@H](C)CO)C2=O | inactive | inactive | inactive
22 | COc1ccc(S(=O)(=O)Nc2ccc3c(c2)C(=O)N([C@H](C)CO)C[C@H](C)[C@@H](CN(C)Cc2ccc(Cl)c(Cl)c2)O3)cc1 | inactive | inactive | inactive
23 | C[C@H](C(=O)N(C)C[C@H]1OCc2ccccc2-c2c(n(C)c3ccccc23)C(=O)N([C@@H](C)CO)C[C@H]1C)c1ccccc1 | inactive | inactive | inactive
24 | CC(C)NC(=O)N(C)C[C@@H]1Oc2ccc(NS(=O)(=O)c3cccs3)cc2C(=O)N([C@@H](C)CO)C[C@@H]1C | inactive | inactive | inactive
25 | C[C@H](CO)N1C[C@H](C)[C@@H](CN(C)C(=O)NC2CCCCC2)Oc2c(NC(=O)c3cnccn3)cccc2C1=O | inactive | inactive | inactive
26 | CC(C)NC(=O)N[C@@H]1C=C[C@@H](CC(=O)O)O[C@@H]1CO | inactive | inactive | inactive
27 | CN1C(=O)c2cc(NC(=O)c3cccs3)ccc2OC[C@H]2O[C@H](CC(=O)NCCN3CCCCC3)CC[C@H]21 | inactive | inactive | inactive

Row | SMILES | cytotoxicity call (HSkMC) | cytotoxicity call (HepG2) | growth inhibition call (S. aureus RN4220)
28 | C[C@@H]1CCCCO[C@H](CN(C)C(=O)CCCN(C)C)[C@H](C)CN([C@H](C)CO)C(=O)c2cc(N(C)C)ccc2O1 | inactive | inactive | inactive
29 | C[C@@H]1CN([C@@H](C)CO)C(=O)c2cc(NC(=O)Cn3cnnn3)ccc2O[C@@H]1CN(C)CC1CCCCC1 | inactive | inactive | inactive
30 | CO[C@@H]1CN(C)C(=O)c2cc(NC(C)=O)ccc2OC[C@@H](C)N(S(=O)(=O)c2cn(C)cn2)C[C@@H]1C | inactive | inactive | inactive
31 | COc1ccccc1CNC(=O)C[C@H]1C[C@H]2c3cc(NC(=O)Cc4ccncc4)ccc3O[C@H]2[C@H](CO)O1 | inactive | inactive | inactive
32 | C[C@@H]1CN([C@H](C)CO)C(=O)c2c(c3ccccc3n2C)-c2ccccc2CO[C@H]1CN(C)C(=O)Nc1ccccc1C(F)(F)F | inactive | inactive | inactive
33 | C[C@@H]1CN([C@@H](C)CO)C(=O)c2cc(NC(=O)CCCN(C)C)ccc2O[C@H]1CN(C)S(=O)(=O)c1cccs1 | inactive | inactive | inactive
34 | COc1ccc(CN(C)C[C@@H]2OCCCC[C@@H](C)Oc3ccc(NC(=O)Nc4ccc(F)cc4)cc3C(=O)N([C@H](C)CO)C[C@@H]2C)cc1 | inactive | inactive | inactive
35 | O=C1CCOC1 | inactive | inactive | inactive
36 | C[C@H]1CN([C@@H](C)CO)C(=O)c2cccc(NC(=O)c3cnccn3)c2O[C@H]1CN(C)S(=O)(=O)c1ccc(F)cc1 | inactive | inactive | inactive
37 | O=C(C[C@@H]1CC[C@@H]2[C@H](COC[C@H](O)CN2C(=O)c2ccccc2)O1)NCCCN1CCOCC1 | inactive | inactive | inactive
38 | Cc1cccc(S(=O)(=O)N2C[C@@H](O)COC[C@H]3O[C@H](CC(=O)NCc4ccc5c(c4)OCO5)CC[C@@H]32)c1 | inactive | inactive | inactive
39 | Cc1ccc(S[C@]2(C(=O)NCCCN(C)C)CC(=O)N(Cc3cc(C(F)(F)F)cc(C(F)(F)F)c3)[C@@H]2c2ccc(CO)cc2)cc1 | inactive | inactive | inactive
40 | Nc1nnc(CC(=O)N2CCCCC2)o1 | inactive | inactive | inactive
41 | C[C@@H]1CC[C@@]2(OC1)O[C@H]1C[C@H]3[C@H]4C[C@@H](O)[C@H]5C[C@@H](O[C@@H]6O[C@H](CO)[C@H](O[C@@H]7O[C@H](CO)[C@@H](O)[C@H](O[C@@H]8OC[C@@H](O)[C@H](O)[C@H]8O)[C@H]7O[C@@H]7O[C@H](CO)[C@@H](O)[C@H](O)[C@H]7O)[C@H](O)[C@H]6O)[C@H](O)C[C@]5(C)[C@@H]4CC[C@]3(C)[C@H]1[C@@H]2C | inactive | active | inactive
42 | CO[C@@H]1CN(C)C(=O)c2ccc(NS(=O)(=O)CC(F)(F)F)cc2OC[C@H](C)N(C(=O)NC(C)C)C[C@H]1C | inactive | inactive | inactive
43 | C[C@H]1CN([C@@H](C)CO)C(=O)c2cc(NS(C)(=O)=O)ccc2O[C@H]1CN(C)Cc1ccc(C(=O)Nc2ccccc2N)cc1 | inactive | inactive | inactive
44 | C[C@H](CO)N1C[C@H](C)[C@H](CN(C)Cc2ccc(Oc3ccccc3)cc2)Oc2ccc(NC(=O)c3ccncc3)cc2C1=O | inactive | active | inactive
45 | C[C@H](CO)N1C[C@H](C)[C@H](CN(C)Cc2ccc(C(F)(F)F)cc2)Oc2ccc(NC(=O)NC3CCCCC3)cc2C1=O | inactive | inactive | inactive
46 | COc1ccc(CN(C)C[C@H]2OCCCC[C@@H](C)Oc3ccc(NC(=O)C4CCCCC4)cc3C(=O)N([C@@H](C)CO)C[C@H]2C)cc1 | inactive | inactive | inactive
47 | COc1cc(N)ccn1 | inactive | active | inactive
48 | C[C@@H]1CN([C@@H](C)CO)C(=O)c2cc(N(C)C)ccc2O[C@@H](C)CCCCO[C@@H]1CN(C)Cc1ccc(C(F)(F)F)cc1 | inactive | inactive | inactive
49 | COc1ccc(NC(=O)Nc2ccc3c(c2)C(=O)N([C@H](C)CO)C[C@H](C)[C@H](CN(C)C(=O)Nc2ccc(OC)cc2)OCCCC[C@@H](C)O3)cc1 | inactive | inactive | inactive
50 | C[C@H](CO)N1C[C@H](C)[C@@H](CN(C)CC2CCOCC2)Oc2cc(-c3cccnc3)ccc2S1(=O)=O | inactive | inactive | inactive
51 | C[n+]1ccccc1C=NO.[Cl-] | inactive | inactive | inactive
52 | CC(C)c1ccccc1O | inactive | inactive | inactive
53 | C[C@@H]1CN([C@@H](C)CO)C(=O)c2cc(NC(=O)Nc3cccc4ccccc34)ccc2O[C@@H]1CN(C)Cc1ccc(-c2ccccc2)cc1 | active | inactive | inactive
54 | C[C@H](CO)N1C[C@H](C)[C@H](CN(C)Cc2ccc(-c3ccccc3)cc2)Oc2ccc(NC(=O)Nc3cccc4ccccc34)cc2C1=O | active | active | inactive
